Results from the supplement of paper PMC11417369.
Some of the results follow.

Each sequence was assayed on PfAP2-HC AP2 domain (GST-tagged) (assay: gcPBM binding intensity (ln(normalized median fluorescence intensity)); higher = stronger DNA binding).
Summary of the method: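 Binding intensity is defined as the maximum Masliner-normalised natural-log median intensity across replicate spots for either probe orientation. It was measured on an Agilent 4 × 180k array of primer-extended double-stranded 36-bp intergenic genomic probes and negative controls, to which GST-tagged P. falciparum DNA-binding domains made in E. coli were applied for 1 h in 1× PBS with 1% milk, 0.2 mg/ml BSA, 0.5% salmon testes DNA and 0.03% Triton X-100. Detection was by Alexa488 anti-GST antibody and scanning at 488 nm.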

Sequence	gcPBM binding intensity (ln)
AATACAAGAACTGACACACATACATACTACATTTTA [CACACA_site2829]	10.4
ATATTTATATATAGTAGTACTTTCAATAATTTAAAT [XGTACX_site7276]	9.47
AAAAAATTAAAAATACGTACATATATACATATATAT [XGTACX_site4621]	9.71
TATGATATTTATATGCGTACTGAAGTATGCCTATTT [XGTACX_site6133]	9.87
TCTTAAAATATATAGGTGCAAAAAAAAAAAAAAAAA	9.07
AAAGAAAGAAGACACACACACATATATAAATATCAA [CACACA_site7715]	10.6
ATATTCATGTTGATATGTACTTATTCTATATTGAAT [XGTACX_site8347]	9.57
ATCAGTGATTAGGTTATATATAAAAATGAACTAATA [GTGCAC_negctrl_site647]	9.62
TATATATATATATATATACACACTTGTGCAGAATAT [CACACA_site2216]	9.87
ATAATTAAAAAAAATTGTACATATAAATAGAAGATT [XGTACX_site230]	9.85
AGATTAAAATAATATAAACACACATATACTTTTTTC [CACACA_site8085]	9.82
AAAAAAAAAAGAATAGCACACACACCGATATAAATA [CACACA_site8111]	10.5
TAGGTATGCTCTCAATGTACATAAAATAATTTTACT [XGTACX_site6556]	9.58
TGTTTTTATTTATTCTGTACTGAAGAGAGTTATATA [XGTACX_site8859]	9.52
TAAGAAATAAATAGTACACACATAGACACAGACACA [CACACA_site4934]	10.6
TTTAAATACAGACATACACACATACACCCACATATA [CACACA_site8078]	10.2
GTATATGAGAAAAAAAGTACATGCACAAAATGTATA [XGTACX_site6441]	9.74
GATATTCTATAAAAAAGTACAAATATTTTAAAAAAT [XGTACX_site2177]	9.53
AGCATTAATTATTTCACACATATATATATATATATA [CACACA_site4889]	9.76
TAAATCCTTTACAACACACACACAAAAAAAAAAAAA [CACACA_site643]	10.2
TCATTTTAAAAAAATAGTACTTTAAGAAACTTTTAT [XGTACX_site602]	9.14
TTTTTTTTTTTTTTTTTTTATGTATACATATTTATA [TGCATGCA_negctrl_site234]	9.23
TTATAATGAAATATATTCTTATTCTTTTTTTTTTTT [GTGCAC_negctrl_site384]	9.37
TAAAATGTACAGGACGCACACACATATATATATATA [CACACA_site3673]	10.1
TTTTTTTTTTTTCATTGTACTCTTAAAAATTCAACT [XGTACX_site3154]	9.44
